From patent US20230128688A1, “DIRECTED CONJUGATION TECHNOLOGIES” (KLEO PHARMACEUTICALS, INC., priority 2019, published 2023)
At least one structure is not confirmed: it was looked up by name or label, or the drawing left a doubt. Residues, ends and D or L forms follow the SMILES beside them. *: point of attachment. X5 = O=C(CCOCCOCCOCCOCCOCCOCCNC(=S)Nc1ccc2c(c1)C(=O)OC21c2ccc(O)cc2Oc2cc(O)ccc21)Oc1ccc(C(=O)NCCOCCOCCOCCOCCOCCN*)cc1F; X1 = O=C(CCOCCOCCOCCOCCOCCOCCNC(=S)Nc1ccc2c(c1)C(=O)OC21c2ccc(O)cc2Oc2cc(O)ccc21)Oc1ccc(C(=O)NCCOCCOCCOCCOCCN*)cc1F; X4 = O=C(CCOCCOCCOCCOCCOCCOCCNC(=S)Nc1ccc2c(c1)C(=O)OC21c2ccc(O)cc2Oc2cc(O)ccc21)Oc1ccc(C(=O)NCCOCCOCCOCCN*)cc1F; X3 = O=C(CCOCCOCCOCCOCCOCCOCCNC(=S)Nc1ccc2c(c1)C(=O)OC21c2ccc(O)cc2Oc2cc(O)ccc21)Oc1ccc(C(=O)NCCOCCOCCN*)cc1F

What was measured:
daratumumab = assay: Absorbance based DAR analysis of FITC conjugation to antibody; assay type: biochemical
Experimental: (§1) In some embodiments, reaction partners, e.g., compounds of formula R-I or salts thereof ere dissolved in DMSO to 5 mM stock solution.
(§2) In some embodiments, reactions are set up with 300 micrograms of antibody. In some embodiments, various conditions, including various buffers, reagent equivalents, reaction time, reaction temperature and reaction concentrations can be utilized.
As an example, one reaction is 300 microliter reaction with 1 mg/mL of antibody in PBS. Peptide I-45 (1 microliter of 5 mM stock in DMSO, 2.5 molar equivalents relative to daratumumab) was diluted in 284 microliters of PBS buffer (10 mM phosphate, 150 mM sodium chloride, pH 7.4), then 15 microliters of daratumumab (20 mg/mL stock) was added to the reaction mixture followed by incubation at room temperature in the dark. After 4 h reaction buffer was exchanged using Amicon Ultra centrifuge filter (30 KDa MWCO, 0.5 mL volume). First, glycine buffer (100 mM, pH 2.1) was used for buffer exchange to ensure dissociation of target binding moieties after reaction. Then, phosphate buffer saline (pH 7.4) was used for further buffer exchange and storage.
In another example, a reaction is 300 microliter reaction with 1 mg/mL of antibody in borate buffer. Peptide I-44 (1.2 microliter of 5 mM stock in DMSO, 3.0 molar equivalents relative to daratumumab) was diluted in 284 microliters of Borate buffer (100 mM borate, pH 8.3), then 15 microliters of daratumumab (20 mg/mL stock) was added to the reaction mixture followed by incubation at room temperature in the dark. After 20 h reaction buffer was exchanged using Amicon Ultra centrifuge filter (30 KDa MWCO, 0.5 mL volume). First, glycine buffer (100 mM, pH 2.1) was used for buffer exchange to ensure dissociation of target binding moieties after reaction. Then, phosphate buffer saline (10 mM phosphate, 150 mM sodium chloride, pH 7.4) was used for further buffer exchange and storage.
(§3) In some embodiments, a useful technology is absorbance based DAR analysis. DAR (ratio of moieties of interest and target agent moieties (e.g., antibody agent moieties) was calculated for various antibody conjugates, e.g., in various reagent screening/assessment methods. Various agents comprising target binding moieties were assessed for conjugation efficiency as reaction partners with targets, e.g. protein agents such as antibody agents, compared to reagents with the same reactive groups but without target binding moieties. In various ratio determination ‘Drug’/moiety of interest is fluorescein isothiocyanate (FITC) dye conjugated to target agents, e.g., antibody agents. DAR molar ratio is defined as a ratio of moles of drug/moiety of interest to moles of target agent/antibody. Molarity is calculated from absorbance of FITC (A485) and antibody (A280) of conjugated product, and extinction coefficients of FITC and antibody using Beer-Lambert law. Correction coefficient 0.35 was used to correct for absorbance of FITC at 280 nm. Biotek Synergy H1 microplate reader and Take3 microvolume plate were used for absorbance measurements. Concentration of antibody was at least 3 mg/mL for optimal signal-to-noise in the readings. Certain target binding moieties that can provide higher DAR compared to equivalent controls (absence of target binding moieties) were selected as hits for further analysis. Certain assessment data were provided below as examples.

Cetuximab = assay: as above; assay type: biochemical; details: 2.5 M eq reagent, phosphate buffer saline pH 7.4, 4 h, 25 C; Drug = FITC
Experimental: as §1, §2, §3
Reactions were set up with antibodies using 2.5 M eq of indicated reagent in phosphate buffer saline pH 7.4 for 4 h at 25° C. DAR is Drug to antibody ratio, in this case “Drug” is FITC and DAR is measured using FITC absorbance.

[1] = 30 M eq reagent, borate buffer pH 8.3, 20 h, 37 C, Drug = FITC
[2] = 2.5 M eq, 25 C, 4 h, Acetate pH 6.2
[3] = 2.5 M eq, 25 C, 4 h, Borate pH 8.3
[4] = 2.5 M eq, 25 C, 4 h, PBS pH 7.4
[5] = 5 M eq, 25 C, 4 h, Acetate pH 6.2
[6] = 5 M eq, 25 C, 4 h, Borate pH 8.3
[7] = 10 M eq, 25 C, 2 h, Acetate pH 6.2
[8] = 10 M eq, 25 C, 4 h, Borate pH 8.3
[9] = 2.5 M eq reagent, phosphate buffer saline pH 7.4, 4 h, 25 C, Drug = FITC

Q: `CC(=O)N[C@@H](Cc1c[nH]cn1)C(=O)N[C@@H](CCC(=O)O)C(=O)N[C@@H](Cc1ccc(O)cc1)C(=O)N[C@@H](Cc1c[nH]c2ccccc12)C(=O)NCCOCCNC(=O)c1ccc(OC(=O)CCOCCOCCOCCOCCOCCOCCNC(=S)Nc2ccc3c(c2)C(=O)OC32c3ccc(O)cc3Oc3cc(O)ccc32)c(F)c1` [Compound I-32] was tested. Which DAR (daratumumab; [1]) did it give?
A: 0.28

Q: `CC(=O)N[C@@H](Cc1c[nH]cn1)C(=O)N[C@@H](CCC(=O)O)C(=O)N[C@@H](Cc1ccc(O)cc1)C(=O)N[C@@H](Cc1c[nH]c2ccccc12)C(=O)NCCOCCOCCOCCOCCNC(=O)c1ccc(OC(=O)CCOCCOCCOCCOCCOCCOCCNC(=S)Nc2ccc3c(c2)C(=O)OC32c3ccc(O)cc3Oc3cc(O)ccc32)c(F)c1` [Compound I-33] was tested. Which DAR (daratumumab; [1]) did it give?
A: 0.33

Q: For `CC(=O)NCC(=O)N[C@@H](CO)C(=O)N[C@@H](Cc1ccc(O)cc1)C(=O)N[C@@H](Cc1c[nH]c2ccccc12)C(=O)N[C@@H](Cc1ccc(O)cc1)C(=O)N[C@@H](CC(=O)O)C(=O)N[C@H](C(=O)N[C@@H](Cc1c[nH]c2ccccc12)C(=O)N[C@@H](Cc1ccccc1)C(=O)NCCOCCOCCOCCOCCNC(=O)c1ccc(OC(=O)CCOCCOCCOCCOCCOCCOCCNC(=S)Nc2ccc3c(c2)C(=O)OC32c3ccc(O)cc3Oc3cc(O)ccc32)c(F)c1)C(C)C` [Compound I-35] (Ac-GSYWYDVWF-X1), which DAR (daratumumab; [2]) is on record?
A: 0.20

Q: What about the “Fold (DAR with I-35 over I-18)” value (daratumumab; [2]) of the same compound?
A: 2.65

Q: And the DAR (daratumumab; [3])?
A: 0.60

Q: What about the “Fold (DAR with I-35 over I-18)” value (daratumumab; [3]) of the same compound?
A: 1.75

Q: And the DAR (daratumumab; [4])?
A: 0.25

Q: What about the “Fold (DAR with I-35 over I-18)” value (daratumumab; [4]) of the same compound?
A: 5.46

Q: What about the DAR (daratumumab; 5 M eq reagent, phosphate buffer saline pH 7.4, 4 h, 25 C, Drug = FITC) of the same compound?
A: 0.30

Q: And the DAR (daratumumab; [5])?
A: 0.23

Q: What about the “Fold (DAR with I-35 over I-18)” value (daratumumab; [5]) of the same compound?
A: 1.64

Q: What about the DAR (daratumumab; [6]) of the same compound?
A: 0.99

Q: And the “Fold (DAR with I-35 over I-18)” value (daratumumab; [6])?
A: 2.37

Q: And the DAR (daratumumab; 5 M eq, 25 C, 4 h, PBS pH 7.4)?
A: 0.29

Q: What about the “Fold (DAR with I-35 over I-18)” value (daratumumab; 5 M eq, 25 C, 4 h, PBS pH 7.4) of the same compound?
A: 3.89

Q: What about the DAR (daratumumab; [7]) of the same compound?
A: 0.47

Q: What about the “Fold (DAR with I-35 over I-18)” value (daratumumab; [7]) of the same compound?
A: 3.94

Q: And the DAR (daratumumab; [8])?
A: 1.56

Q: What about the “Fold (DAR with I-35 over I-18)” value (daratumumab; [8]) of the same compound?
A: 2.02

Q: What about the DAR (daratumumab; 10 M eq, 25 C, 4 h, PBS pH 7.4) of the same compound?
A: 0.54

Q: And the “Fold (DAR with I-35 over I-18)” value (daratumumab; 10 M eq, 25 C, 4 h, PBS pH 7.4)?
A: 3.57

Q: And the DAR (daratumumab; [1])?
A: 2.05

Q: `CC(=O)N[C@@H](CCCNC(=N)N)C(=O)N[C@@H](CCCNC(=N)N)C(=O)NCC(=O)N[C@@H](Cc1c[nH]c2ccccc12)C(=O)NCCOCCNC(=O)c1ccc(OC(=O)CCOCCOCCOCCOCCOCCOCCNC(=S)Nc2ccc3c(c2)C(=O)OC32c3ccc(O)cc3Oc3cc(O)ccc32)c(F)c1` [Compound I-36] was tested. Which DAR (daratumumab; [1]) did it give?
A: 5.03

Q: For `CC(=O)NCC(=O)N[C@@H](CO)C(=O)N[C@@H](Cc1ccc(O)cc1)C(=O)N[C@@H](Cc1c[nH]c2ccccc12)C(=O)N[C@@H](Cc1ccc(O)cc1)C(=O)N[C@@H](CC(=O)O)C(=O)N[C@H](C(=O)N[C@@H](Cc1c[nH]c2ccccc12)C(=O)N[C@@H](Cc1ccccc1)C(=O)NCCOCCOCCOCCOCCOCCNC(=O)c1ccc(OC(=O)CCOCCOCCOCCOCCOCCOCCNC(=S)Nc2ccc3c(c2)C(=O)OC32c3ccc(O)cc3Oc3cc(O)ccc32)c(F)c1)C(C)C` [Compound I-38] (Ac-GSYWYDVWF-X5), which DAR (daratumumab; [9]) is on record?
A: 0.52

Q: And the “DAR Daratumumab” value (daratumumab; [9])?
A: 0.52

Q: What about the “DAR Cetuximab” value (Cetuximab) of the same compound?
A: 0.31

Q: For `CC(=O)NCC(=O)N[C@@H](CO)C(=O)N[C@@H](Cc1ccc(O)cc1)C(=O)N[C@@H](Cc1c[nH]c2ccccc12)C(=O)N[C@@H](Cc1ccc(O)cc1)C(=O)N[C@@H](CC(=O)O)C(=O)N[C@H](C(=O)N[C@@H](Cc1c[nH]c2ccccc12)C(=O)N[C@@H](Cc1ccccc1)C(=O)NCCOCCOCCOCCNC(=O)c1ccc(OC(=O)CCOCCOCCOCCOCCOCCOCCNC(=S)Nc2ccc3c(c2)C(=O)OC32c3ccc(O)cc3Oc3cc(O)ccc32)c(F)c1)C(C)C` [Compound I-39] (Ac-GSYWYDVWF-X4), which DAR (daratumumab; [9]) is on record?
A: 0.36

Q: And the “DAR Daratumumab” value (daratumumab; [9])?
A: 0.36

Q: What about the “DAR Cetuximab” value (Cetuximab) of the same compound?
A: 0.46

Q: For `CC(=O)NCC(=O)N[C@@H](CO)C(=O)N[C@@H](Cc1ccc(O)cc1)C(=O)N[C@@H](Cc1c[nH]c2ccccc12)C(=O)N[C@@H](Cc1ccc(O)cc1)C(=O)N[C@@H](CC(=O)O)C(=O)N[C@H](C(=O)N[C@@H](Cc1c[nH]c2ccccc12)C(=O)N[C@@H](Cc1ccccc1)C(=O)NCCOCCOCCNC(=O)c1ccc(OC(=O)CCOCCOCCOCCOCCOCCOCCNC(=S)Nc2ccc3c(c2)C(=O)OC32c3ccc(O)cc3Oc3cc(O)ccc32)c(F)c1)C(C)C` [Compound I-40] (Ac-GSYWYDVWF-X3), which DAR (daratumumab; [9]) is on record?
A: 0.40

Q: What about the “DAR Daratumumab” value (daratumumab; [9]) of the same compound?
A: 0.40

Q: And the “DAR Cetuximab” value (Cetuximab)?
A: 0.69
